About 540 (0.36%) of roughly 150,000 compounds showed an effect of 50% or more. This is one part of the list.

The source of these data is ChEMBL document CHEMBL4888484, “Replenishing the malaria drug discovery pipeline: Screening and hit evaluation of the MMV Hit Generation Library 1 (HGL1) against asexual blood stage Plasmodium falciparum ,using a nano luciferase reporter read-out” (2022).

For the assay, the system named is Plasmodium falciparum. The assay is described as follows: Primary screen in NF54 nanoGlo assay, in single point, at 2uM, 72h; a lower Z score goes with more inhibition. The settings on record: timepoint 72 hour. The class given is functional, Erythrocyte.
One may read the % Inhibition as the change of the read-out against control, counted positive when it falls. Take `CC1=C(C(=O)N(C)Cc2nccs2)OCCO1`: the “% Inhibition” value is recorded as 11% and the Z score is reported as -1.48.

For `C[C@H]1CCN(CCC(=O)N(CC#N)CC#N)c2ccccc21`, the “% Inhibition” value was -3% and the Z score is 0.44.

On to `CCc1nnsc1C(=O)N1CCCN(C(C)=O)CC1`, for which the “% Inhibition” value is given as -16% and the Z score amounted to 1.35.

As for `CN1C(=O)[C@@H]2CC[C@H]1CN(Cc1cnc(NCc3ccccc3)nc1)C2`, the “% Inhibition” value is -18% and the Z score was found to be 1.78.

In the case of `O=C(Cc1cnc2ccccc2c1)NCCC(=O)Nc1cccnc1`, the “% Inhibition” value is recorded as 5% and the Z score was -0.47.

As to `CC1=C(c2ccccc2)[C@H]1C(=O)NCc1cc(C2CC2)on1`, the “% Inhibition” value is given as -8% and the Z score was 1.23.

In the case of `Cc1nn(-c2ccc(F)cc2)c2[nH]nc(NC(=O)COCC3CC3)c12`, the “% Inhibition” value was -8% and the Z score came to 1.26.

Regarding `Cc1nnsc1C(=O)N1C2CCC1CC(N1C(=O)CCC1=O)C2` (centres undefined), the “% Inhibition” value was -11% and the Z score came to 1.2.

As for `Cc1ccc(C(=O)NCC[C@H](C)N2CCN(C)CC2)n1C(F)F`, the “% Inhibition” value is given as -2% and the Z score was determined as 0.47.

Regarding `CC1C(=O)C(C(=O)NCc2ccncc2)C(=O)N1Cc1ccccc1` (centres undefined), the “% Inhibition” value is -1% and the Z score came out at 0.21.

Regarding `Cc1ccc(C)c(NCc2cc(=O)n3cc(C)ccc3n2)c1`, the “% Inhibition” value is recorded as 27% and the Z score is given as -3.01.

As for `Cn1c(=O)c(CN2CCCC2)cc2ccc(Cl)cc21`, the “% Inhibition” value is recorded as -1% and the Z score is 0.16.

`C[C@H]1CCCCN1CC(=O)NCCC#N`: the “% Inhibition” value was -13% and the Z score turned out to be 2.63.

As to `CN1C(=O)C2(CCN(Cc3ccncc3)CC2)C[C@H]1C(=O)NC1CCCC1`, the “% Inhibition” value was -6% and the Z score stood at 0.74.

As for `O=C(O)C1=NN(c2ccc(F)cc2)C(=O)CC1=O`, the “% Inhibition” value stood at 31% and the Z score is recorded as -3.48.

As to `O=C(c1cn(CCN2CCOCC2)nn1)N(CC1CCC1)C[C@H]1CCCO1`, the “% Inhibition” value was -5% and the Z score was 0.92.

With `C[C@@H](CNc1ccc(F)cc1C#N)Cn1ccnc1`, the “% Inhibition” value is reported as -8% and the Z score is 1.05.

For `COc1ccc(CN2C(=O)[C@@H]3C[C@@H](O)CN3C3(CN(Cc4c[nH]cn4)C3)C2=O)cc1`, the “% Inhibition” value is 32% and the Z score is listed as -3.62.

`CCOc1ccc(CNC(=O)CCC(=O)N2C[C@@H]3CCCN3c3ccccc32)cc1OC`: the “% Inhibition” value is reported as -14% and the Z score is listed as 1.55.

Turning to `CCC[C@](C)(NC(=O)c1cc(OC)ccc1O)C(=O)OC`, the “% Inhibition” value was -6% and the Z score is listed as 0.53.

Regarding `CNC(=O)Cn1cc(NC[C@H]2CC2(Cl)Cl)cn1`, the “% Inhibition” value is reported as -1% and the Z score turned out to be 0.18.

Turning to `CCNC(=O)c1ccc(NCc2cncc(OC)c2C)cc1`, the “% Inhibition” value is given as 6% and the Z score is listed as -0.95.

Consider `C[C@@H]1CN(C(=O)c2cccc(-c3ccc4cnc(N)cc4c3)c2)C[C@H](C)O1`, for which the “% Inhibition” value is -8% and the Z score is given as 0.89.

Take `CCNc1ncc(C(=O)N2CCN(C/C=C/c3ccccc3)CC2)cn1`: the “% Inhibition” value is -9% and the Z score is reported as 1.77.

On to `CC(NC1CCN(C(=O)COc2ccccc2)C1)c1cccc(C#N)c1` (centres undefined), for which the “% Inhibition” value turned out to be 3% and the Z score is -0.41.

On to `CC(C)n1ccnc1[C@H]1CCCN(C(=O)c2cnc3c(c2)CCCC3)C1`, for which the “% Inhibition” value is listed as 3% and the Z score is -0.26.

Regarding `OC[C@H](Cc1c[nH]c2ccccc12)Nc1cc(-n2ccnc2)ncn1`, the “% Inhibition” value is -6% and the Z score amounted to 0.76.

On to `Cc1ccc(C(=O)Nc2ncn(Cc3c(F)cccc3Cl)n2)cc1`, for which the “% Inhibition” value is recorded as -15% and the Z score came to 1.74.

On to `CCc1nc(N)sc1C(=O)N1C[C@@H]2CC[C@H]1CN(Cc1cccnc1)C2`, for which the “% Inhibition” value is recorded as -2% and the Z score worked out at 0.33.

For the compound `CO[C@H]1COCC[C@@H]1NC(=O)c1cccc(N2CCS(=O)(=O)CC2)c1`, the “% Inhibition” value is recorded as -3% and the Z score came out at 0.55.

For `O=C([C@@H](O)Cc1ccccc1)N1CCS(=O)(=O)c2ccccc2C1`, the “% Inhibition” value came out at 5% and the Z score is on record as -0.59.

With `COc1cnc(C(=O)NC[C@H](NC(=O)OC(C)(C)C)C2CC2)c(F)c1`, the “% Inhibition” value is reported as -8% and the Z score is on record as 1.41.

Consider `Cc1ccc2oc(-c3nnc(C(=O)NC4CCCCCCC4)o3)c(C)c2c1`, for which the “% Inhibition” value is recorded as -3% and the Z score came to 0.57.

Turning to `CC(CN1CCOCC1)NC(=O)NC(C(=O)N(C)C)c1ccccc1` (centres undefined), the “% Inhibition” value is recorded as -2% and the Z score amounted to 0.35.

Consider `CC(C)(C)OC(=O)N1CCC[C@H](N(CC(=O)NC2CC2)Cc2cncnc2)CC1`, for which the “% Inhibition” value is 7% and the Z score is reported as -1.28.

Regarding `CCOC(=O)CN(CCOC)CC(=O)Nc1ccc(Cl)cc1F`, the “% Inhibition” value was -9% and the Z score is listed as 1.09.

`O=C(Cn1cnc2c(c1=O)CCCC2)Nc1ccc(Br)cc1F`: the “% Inhibition” value is listed as -7% and the Z score is listed as 0.86.

With `O=C(c1cscn1)N1CC[C@H](n2cc(COCC3CC3)nn2)C1`, the “% Inhibition” value is listed as -13% and the Z score worked out at 1.92.

As for `CCOc1cc(N2CC[C@H](C(=O)Nc3cn[nH]c3)C2)nc(C)n1`, the “% Inhibition” value is on record as 9% and the Z score is reported as -1.73.

In the case of `CC(C)=CCO[C@H]1COCC[C@@H]1NC(=O)c1nnc2n1CCCCC2`, the “% Inhibition” value is reported as -8% and the Z score turned out to be 0.95.

Take `CCCN(CC(=O)N(Cc1cccc(Cl)c1)C1CCN(C(=O)C(C)C)CC1)S(=O)(=O)c1ccc(C)cc1`: the “% Inhibition” value was -7% and the Z score is reported as 1.03.

As for `CC(=O)c1ccc(F)cc1-c1cccc(C(=O)NC2(CO)CCCCC2)c1`, the “% Inhibition” value turned out to be 6% and the Z score is listed as -0.6.
